In PubChem BioAssay AID488969 (Vanderbilt High Throughput Screening Facility, 2010):
Over roughly 110,000 compounds, “z-score” has its median near -0.1; the highest 2% begin near 2. Some of the results follow.

What follows are compounds tested against Metabotropic glutamate receptor 8 (Rattus norvegicus) (UniProt P70579) (assay: mGluR8 Gi/Go-coupled signaling modulation – cell-based, rat, thallium flux, HTS, primary screen (AID 488969)). Conditions: HEK293 rat mGluR8, GIRK (G protein-gated inwardly rectifying potassium channel) thallium flux, FluoZin2; at 10 µM; stronger effect = higher value; submaximal glutamate (EC20) added with thallium.
Chain of UniProt P70579 (P70579 whole entry, looked up): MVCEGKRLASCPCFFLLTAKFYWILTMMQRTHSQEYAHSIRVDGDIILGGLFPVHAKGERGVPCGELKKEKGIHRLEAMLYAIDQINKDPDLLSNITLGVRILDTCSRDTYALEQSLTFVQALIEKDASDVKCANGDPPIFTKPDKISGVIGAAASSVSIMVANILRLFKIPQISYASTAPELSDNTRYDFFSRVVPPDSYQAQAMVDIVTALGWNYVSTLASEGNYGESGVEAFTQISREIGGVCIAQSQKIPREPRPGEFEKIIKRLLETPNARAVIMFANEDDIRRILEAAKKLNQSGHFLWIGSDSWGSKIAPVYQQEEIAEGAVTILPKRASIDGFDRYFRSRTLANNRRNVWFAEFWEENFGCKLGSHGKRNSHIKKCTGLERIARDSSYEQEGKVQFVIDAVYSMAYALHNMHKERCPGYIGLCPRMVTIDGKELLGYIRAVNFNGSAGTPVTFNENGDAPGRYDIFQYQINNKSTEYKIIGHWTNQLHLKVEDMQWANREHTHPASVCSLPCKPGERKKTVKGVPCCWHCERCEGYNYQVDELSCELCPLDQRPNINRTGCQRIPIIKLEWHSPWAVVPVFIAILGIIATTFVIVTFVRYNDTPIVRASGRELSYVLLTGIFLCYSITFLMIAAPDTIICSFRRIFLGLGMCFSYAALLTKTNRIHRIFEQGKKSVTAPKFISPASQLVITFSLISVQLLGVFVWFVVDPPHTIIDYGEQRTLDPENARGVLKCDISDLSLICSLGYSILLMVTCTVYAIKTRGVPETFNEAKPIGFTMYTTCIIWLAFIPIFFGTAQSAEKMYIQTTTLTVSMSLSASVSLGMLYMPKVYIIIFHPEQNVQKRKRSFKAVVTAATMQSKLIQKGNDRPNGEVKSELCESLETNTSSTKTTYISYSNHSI

Structure (SMILES)	z-score
CC(C)OC(=O)CSc1nnc(Cc2ccccc2)n1C	0.089
COc1ccc(S(=O)(=O)NCC2CCC(C(=O)N3CCC4(CC3)OCCO4)CC2)cc1 (stereo not given)	0.151
Cc1cccc(Nc2ncnc3nc[nH]c23)c1	-1.32
Cc1ccc(-n2ccc(=O)c(-c3ccnc(SCc4cccc(Cl)c4)n3)n2)cc1	-0.44
O=C1C(C=NCCCn2ccnc2)=C(O)c2ccccc21	0.584
O=C(C1CC1)N1CCc2cc(S(=O)(=O)NCC3COc4ccccc4O3)ccc21 (stereo not given)	-0.226
COc1ccccc1CN1C(=S)SC(C)(C)C1NO (stereo not given)	0.222
CCCOc1cccc(C2C(C(=O)c3ccco3)=C(O)C(=O)N2CCN(CC)CC)c1 (stereo not given)	-0.0948
COc1ccc(Cc2noc(-c3ccc(C)cc3)n2)cc1	-0.249
O=C(/C=C/c1cccc([N+](=O)[O-])c1)Nc1ccc(NC(=O)c2cccs2)cc1	-0.0819
CCOc1ccc(C(=O)CCNC(Cc2cnc[nH]2)C(=O)O)cc1 (stereo not given)	0.0942
CC1CCCCC12NC(=O)N(CC(=O)NC(=O)NCc1ccco1)C2=O (stereo not given)	0.146
COc1ccc(OC)c(NS(=O)(=O)c2ccc3c(c2)CCC(=O)N3)c1	0.486
Cc1ccc(F)cc1NC(=O)c1ccc2c(c1)OCO2	-1.03
COc1ccc(CC(=O)NNC(=O)CSc2nnc(C)n2-c2ccccc2)cc1	-0.315
O=C(NCC1CCCO1)c1ccc(C(=O)NCC2CCCO2)cc1 (stereo not given)	-0.42
CCOC(=O)c1[nH]c(COC(=O)C2CC(=O)N(Cc3ccccc3)C2)c(C(=O)OCC)c1C (stereo not given)	0.937
COc1cccc(-c2csc(N3CCN(C(=O)Nc4ccccc4OC)CC3)n2)c1	-1.93
CN(C(=O)COC(=O)CNC(=O)c1sc2ccccc2c1Cl)c1ccccc1	-0.854
CC1CCN(C(=O)CSc2nnc(-c3cccnc3)n2C2CCCCC2)CC1	-0.0482
CCC(NS(=O)(=O)c1ccc(C)cc1)C(=O)Nc1ccc(NC(C)=O)cc1 (stereo not given)	-0.511
c1ccc(-c2nc(-c3cccnc3)n[nH]2)cc1	-0.151
O=C1COc2ccc(C(=O)CSc3nnnn3-c3ccccc3)cc2N1	-0.145
O=c1c2ccccc2cnn1Cc1n[nH]c(=S)n1-c1cc(Cl)cc(Cl)c1	-0.202

Structure (SMILES)	z-score
CCOCC(=O)Nc1c(C(=O)OCC)oc2ccccc12	-0.215
CC(C)CC(=O)Nc1cccc(-c2cn3ccsc3n2)c1	-0.363
COC(=O)c1cccc(COC(=O)CNC(=O)c2ccco2)c1	0.209
CCc1nc(-c2ccccc2)cc(=O)[nH]1	0.128
CCOC(=O)c1cc(-c2nnc(-c3cc(OC)c(OC)c(OC)c3)o2)c(C)nc1C	-1.54
CC(C)OCC(O)CN1CCN(CC(O)COc2ccc3c(c2)OCO3)CC1 (stereo not given)	-0.199
CCCOc1ccc(N2C(=O)CC(N(Cc3ccc(S(N)(=O)=O)cc3)C(=O)CC)C2=O)cc1 (stereo not given)	-0.33
O=C(NC(NNc1ccc([N+](=O)[O-])cc1)(C(F)(F)F)C(F)(F)F)c1ccc(F)cc1	0.544
COCCCNC(=S)NC(=O)c1ccc(C)cc1	0.374
COc1cc(OC)cc(-n2nnnc2SCC(=O)Nc2nc3c(s2)CCCC3)c1	-0.0609
Brc1ccc(-n2c(SCc3nc4ccccc4[nH]3)nnc2-c2ccncc2)cc1	-0.268
COc1cc(C(=O)NCC(C)C)cc(OC)c1OC	0.133
N=C1/C(=C\c2ccc(-c3cccc(Cl)c3)o2)C(=O)N=C2SC=C(c3ccccc3)N12	1.17
C=CCC1(O)C(=O)Nc2ccccc21 (stereo not given)	0.132
COc1cccc(CNC(=O)CCS(=O)(=O)c2cccs2)c1	-0.296
O=C(c1cccs1)N1CCN(c2ncccn2)CC1	0.404
Cc1ccc(-c2nnc(SCC(=O)NNC(=O)COc3cccc(C)c3)n2C)cc1	-0.489
COc1ccccc1-n1cnnc1SCC(=O)c1ccc[nH]1	-0.135
O=C(CSc1n[nH]c(-c2cccs2)n1)N1CCCc2ccccc21	-0.328
Cc1ccc(CNS(=O)(=O)NCc2ccccc2)cc1	-0.102
O=C(Cn1cnc2ccccc2c1=O)Nc1nnc(C2CC2)s1	-0.0222
CCOC(=O)CSC1=C(C#N)C(c2ccc(Cl)cc2)CC(=O)N1 (stereo not given)	-0.248
O=C(COC(=O)C1(c2ccccc2F)CCCC1)N1CCOCC1	0.0595
Cc1cc(/C=N/n2cnnc2)c(O)c([N+](=O)[O-])c1	-0.354

Structure (SMILES)	z-score
COc1cccc(C(=O)OCn2nnc3ccccc3c2=O)c1	-0.0785
CS(=O)(=O)c1ccc2nc(NC(=O)CCC(=O)c3cccs3)sc2c1	1.3
COc1ccc(CCNC(=O)c2cc(-c3cc(C)ccc3O)n[nH]2)cc1OC	-0.296
CC1Cc2cc(/C(O)=C3/C(=O)C(=O)N(CCCn4ccnc4)C3c3ccncc3)ccc2O1 (stereo not given)	-0.018
COc1ccc(CN(CCCN2CCOCC2)C(=O)Nc2cccc(Cl)c2)cc1OC	-0.305
Cc1ccc2nc(-c3ccccc3)c(NC(=O)c3ccco3)n2c1	0.31
COC(=O)CSc1nc(-c2ccc(C)cc2)c2c(c1C#N)CCCC2	0.0112
O=C(NCc1cccs1)C1CCN(S(=O)(=O)c2cccc3cccnc23)CC1	-0.219
Cc1cc(-c2nnc(SCC(=O)c3ccc4c(c3)OCCO4)o2)no1	0.263
O=C(c1cnn2c(C(F)(F)F)cc(-c3ccc(Br)cc3)nc12)N1CCOCC1	-1.01
Cc1cccc(OC(=O)n2c(=S)oc3cc(Cl)ccc32)c1	0.209
CC(Oc1ccccc1)C(=O)Nc1ccc(C(N)=O)cc1 (stereo not given)	0.297
O=C(CSc1ncn[nH]1)N1CCN(S(=O)(=O)c2ccc(Cl)cc2)CC1	-0.0408
C=CCn1c(SCC(=O)Nc2ccc(NC(=O)c3ccco3)c(OC)c2)nnc1-c1ccncc1	-0.214
CN(c1ccc(C(=O)N2CCN(Cc3ccc4c(c3)OCO4)CC2)cc1)S(=O)(=O)c1ccccc1	-0.273
Cc1ccccc1NC(=O)Cn1c(NCC(C)O)nc2ccccc21 (stereo not given)	0.126
Cc1ccc(-n2nnnc2SCC(=O)c2cc(C)n(-c3cc(C)on3)c2C)cc1	0.105
CNc1nc(SC)nc2ccsc12	-0.136
Clc1ccc(Cl)c2sc(N3CCOCC3)nc12	-0.141
O=[N+]([O-])c1cc(F)c(N2CCCCC2)cc1N1CCOCC1	-0.193
CCN(CC)C(=O)CSc1nnc(-c2ccc(O)cc2)n1CC1CCCO1 (stereo not given)	0.0105
O=C(NCCO)c1cc2ccccc2c(=O)s1	0.822
